# Results taken from the BET-seq Pho4 binding data (Le et al. 2018).
# Some of the results follow. Values were computed here from the reads of four pooled replicates and scatter widely.
# Biological target: T1, Pho4 (S. cerevisiae) (UniProt P07270)
# T1 sequence: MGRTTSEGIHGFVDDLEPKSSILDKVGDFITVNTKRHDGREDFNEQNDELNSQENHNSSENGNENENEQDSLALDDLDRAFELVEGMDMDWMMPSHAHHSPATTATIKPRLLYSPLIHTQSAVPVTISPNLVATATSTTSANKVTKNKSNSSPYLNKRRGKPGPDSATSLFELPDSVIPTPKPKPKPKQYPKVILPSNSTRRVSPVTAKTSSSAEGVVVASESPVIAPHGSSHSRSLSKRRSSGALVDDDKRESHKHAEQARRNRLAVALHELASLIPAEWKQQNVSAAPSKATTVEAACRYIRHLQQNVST
# Experiment: relative binding free energy (BET-seq); higher = weaker binding
# Conditions: reference: library average
row,Sequence,relative binding free energy
1,AAGGGCACGTGGTGAT,-0.16 kcal/mol
2,TAGCTCACGTGAGTGG,0.23 kcal/mol
3,CTTCTCACGTGGGGTG,-0.06 kcal/mol
4,TGGTACACGTGGCGGG,0 kcal/mol
5,CTTAGCACGTGCTGGT,-0.05 kcal/mol
6,GTGGGCACGTGCTTAG,-0.08 kcal/mol
7,CTGGTCACGTGCATGG,0.06 kcal/mol
8,TATGTCACGTGGTTTA,0.01 kcal/mol
9,GTGGGCACGTGTTATA,-0.06 kcal/mol
10,ATTTCCACGTGGTTAT,-0.03 kcal/mol
11,TTGGGCACGTGGTCGT,-0.14 kcal/mol
12,ATTGTCACGTGTGAGA,0.22 kcal/mol
13,ATAGCCACGTGTAGGG,-0.06 kcal/mol
14,GAGGTCACGTGTGGGG,0.18 kcal/mol
15,GTATACACGTGATAAT,0.27 kcal/mol
16,AGCGCCACGTGTGGGG,-0.12 kcal/mol
17,GGGGTCACGTGGGATA,0.05 kcal/mol
18,ATGTGCACGTGCAGTT,0 kcal/mol
19,TTATCCACGTGTTTAT,-0.02 kcal/mol
20,GGGATCACGTGTGGCG,0.29 kcal/mol
21,GAGGACACGTGGAGGA,0.06 kcal/mol
22,GGACGCACGTGTTTGT,-0.07 kcal/mol
23,GGTGGCACGTGGGTGA,-0.08 kcal/mol

row,Sequence,relative binding free energy
1,CGGGACACGTGGCGAG,-0.04 kcal/mol
2,ATGGCCACGTGTGGGG,-0.03 kcal/mol
3,TAGTTCACGTGGCAAG,0.09 kcal/mol
4,TTCCGCACGTGTGTGT,0.02 kcal/mol
5,CGTCACACGTGGTGGT,-0.02 kcal/mol
6,ATGTACACGTGGAGGG,-0.06 kcal/mol
7,GAGGCCACGTGGGGCT,-0.27 kcal/mol
8,AATGTCACGTGTGGGC,0.12 kcal/mol
9,AGGTTCACGTGAATGT,0.46 kcal/mol
10,AAGGGCACGTGAGTAT,0.1 kcal/mol
11,TTGAGCACGTGAATAG,0.08 kcal/mol
12,TCGTGCACGTGGGGCT,-0.2 kcal/mol
13,TGCTTCACGTGATTTA,0.36 kcal/mol
14,GAGTGCACGTGTTTGT,0.08 kcal/mol
15,CGTGTCACGTGCGGAG,0 kcal/mol
16,TAGGGCACGTGTATAT,-0.11 kcal/mol
17,ATAGGCACGTGTAAGT,0.11 kcal/mol
18,GGGGACACGTGTGGCT,-0.03 kcal/mol
19,TTTCGCACGTGTATAA,0 kcal/mol
20,GGCCTCACGTGGTTGG,0.26 kcal/mol
21,GTGGTCACGTGATCTG,0.18 kcal/mol
22,CGGTGCACGTGAGGCG,0.17 kcal/mol
23,TGAGGCACGTGGTTGA,-0.18 kcal/mol

row,Sequence,relative binding free energy
1,TGTAGCACGTGATAGG,-0.04 kcal/mol
2,AAGGTCACGTGTGTGC,0.16 kcal/mol
3,AAGGGCACGTGGGATA,-0.21 kcal/mol
4,GGGAGCACGTGGACGG,0.03 kcal/mol
5,ATATACACGTGAAGAT,0.39 kcal/mol
6,GTAGTCACGTGTAAGA,0.24 kcal/mol
7,TAATGCACGTGTAATG,0.05 kcal/mol
8,GCTGGCACGTGATTTT,-0.04 kcal/mol
9,GTTTGCACGTGTAGCG,0.24 kcal/mol
10,GTATTCACGTGCTGGA,0.16 kcal/mol
11,TTATACACGTGGATTA,-0.01 kcal/mol
12,TTCTGCACGTGAAGGG,0.32 kcal/mol
13,AAGGTCACGTGTCGGA,0.01 kcal/mol
14,TGGTTCACGTGAATAA,0.41 kcal/mol
15,ATGAGCACGTGTTTTA,-0.14 kcal/mol
16,TTGATCACGTGATGAA,0.31 kcal/mol
17,TTTTGCACGTGATTAA,0.2 kcal/mol
18,TTCTTCACGTGGTAGA,0.42 kcal/mol
19,CGGGTCACGTGTTGTG,0.15 kcal/mol
20,CGTATCACGTGCGTTT,0.25 kcal/mol
21,CTTGGCACGTGTAAGG,0 kcal/mol
22,GGCTACACGTGTGGCG,0.22 kcal/mol
23,CTTATCACGTGCGGTG,0.16 kcal/mol

row,Sequence,relative binding free energy
1,GTGCTCACGTGGTATT,0.16 kcal/mol
2,GAGGGCACGTGGGAAG,-0.07 kcal/mol
3,GGCTACACGTGGTGCG,0.11 kcal/mol
4,AAAGTCACGTGGGATA,0.02 kcal/mol
5,TGTATCACGTGTACGT,0.05 kcal/mol
6,TACCTCACGTGTGGTG,0.24 kcal/mol
7,GCATACACGTGTGGGT,0.12 kcal/mol
8,TTCTGCACGTGCGGTG,-0.08 kcal/mol
9,AGCTTCACGTGGTATT,0.18 kcal/mol
10,ATTCGCACGTGCAGTT,0.13 kcal/mol
11,GGGTGCACGTGTGATC,0.08 kcal/mol
12,ATATTCACGTGCTTGT,0.16 kcal/mol
13,GGTTTCACGTGCACTT,0.38 kcal/mol
14,TTTTCCACGTGTGTTA,0.03 kcal/mol
15,AAAATCACGTGACTGG,0.42 kcal/mol
16,GAATTCACGTGTGGTT,0.36 kcal/mol
17,TTCATCACGTGTTATT,0.23 kcal/mol
18,TTGCGCACGTGAAGTT,0.02 kcal/mol
19,TAATTCACGTGGTTCA,0.15 kcal/mol
20,TTATGCACGTGGCTAT,-0.22 kcal/mol
21,TGATTCACGTGGGGTG,0.09 kcal/mol
22,TTGCACACGTGTTGAT,0.09 kcal/mol
23,TCGGTCACGTGATTAT,0.17 kcal/mol

row,Sequence,relative binding free energy
1,GCGGTCACGTGGGGAA,0.08 kcal/mol
2,GTGTGCACGTGGGCCG,-0.13 kcal/mol
3,AGTTGCACGTGTCGAT,0.08 kcal/mol
4,TTGTGCACGTGGGTAT,-0.1 kcal/mol
5,TACGGCACGTGGGAAG,-0.17 kcal/mol
6,ATAGGCACGTGCGGGT,-0.17 kcal/mol
7,TGGAGCACGTGAAGTG,0.12 kcal/mol
8,TTGTGCACGTGGCCGT,-0.15 kcal/mol
9,AAGGTCACGTGTTGGG,0.25 kcal/mol
10,CGTATCACGTGAAGGG,0.24 kcal/mol
11,AATTACACGTGATGGA,0.24 kcal/mol
12,CAAGTCACGTGGAGGT,-0.02 kcal/mol
13,GCTAGCACGTGCGGTG,-0.12 kcal/mol
14,ACAATCACGTGTGTGT,0.18 kcal/mol
15,CGAGGCACGTGGAGGA,-0.13 kcal/mol
16,TATCGCACGTGAGGTG,0.03 kcal/mol
17,TCGGTCACGTGGTGTC,0.06 kcal/mol
18,GTTAGCACGTGCGCGG,-0.13 kcal/mol
19,GTTTCCACGTGAGTGT,0.26 kcal/mol
20,CTGAGCACGTGGGGGA,-0.26 kcal/mol
21,ATGATCACGTGTTGAT,0.19 kcal/mol
22,AAGGACACGTGGTGTA,0.02 kcal/mol
23,TCGTTCACGTGTTGGT,0.31 kcal/mol
